Hit rate of the full screen: of about 290,000 compounds, about 1,100 (0.38%) were called active. This list was built around the results that the source calls inconclusive (neither active nor inactive); the mix of calls is not that of the screen. Calls follow the shape of the dose curve; as a rule, active = well fitted inhibition curve with a large enough effect; inconclusive = small, poorly fitted or top-dose-only effect, or another doubt; inactive = no such curve, though single readings can be large or run the other way. Where the call is inconclusive, the potency comes from a doubtful curve fit.
Each compound was assayed against Pyruvate kinase (Leishmania mexicana) (UniProt Q27686) (assay: qHTS Assay for Inhibitors of Leishmania Mexicana Pyruvate Kinase (LmPK)). Details: purified LmPK, Kinase-Glo ATP luminescence, 1 h; activity change, negative = inhibition: at 57.5 µM (top of the series) unless noted.
Chain of UniProt Q27686 (Q27686 whole entry, looked up): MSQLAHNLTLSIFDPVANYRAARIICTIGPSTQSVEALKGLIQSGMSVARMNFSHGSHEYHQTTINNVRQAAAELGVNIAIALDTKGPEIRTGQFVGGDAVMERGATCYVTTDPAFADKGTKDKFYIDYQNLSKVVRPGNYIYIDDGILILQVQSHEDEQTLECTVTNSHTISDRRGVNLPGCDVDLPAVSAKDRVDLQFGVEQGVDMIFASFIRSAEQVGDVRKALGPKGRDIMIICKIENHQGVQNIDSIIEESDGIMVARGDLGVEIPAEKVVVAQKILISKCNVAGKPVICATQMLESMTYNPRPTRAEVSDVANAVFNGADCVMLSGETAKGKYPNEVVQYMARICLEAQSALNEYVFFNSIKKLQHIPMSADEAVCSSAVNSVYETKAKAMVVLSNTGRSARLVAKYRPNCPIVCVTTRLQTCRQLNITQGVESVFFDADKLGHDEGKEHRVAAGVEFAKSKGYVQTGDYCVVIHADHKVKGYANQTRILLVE
Outline: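 Kinase-Glo luminescence read after 1 h RT reaction of 0.1 nM LmPK with 0.5 mM PEP and 0.1 mM ADP. Activity scaled between uninhibited and enzyme-free controls.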
With `N#CC(Cc1ccc(OC(F)F)cc1)c1nc2ccccc2[nH]1` (stereo unspecified) the Potency was inconclusive: 25.1 µM [falling, partial curve]. In the case of `Cn1ccs/c1=N\C(=O)Nc1ccccc1`, the Potency is reported as inconclusive: 20 µM [falling, partial curve]. With `O=C(CSc1nnc(-c2ccncc2)o1)N1CCCCCC1` the “activity change, negative = inhibition” value was inactive: -5.38%. `COC(=O)/C(=C/c1cccc([N+](=O)[O-])c1)NC(=O)c1ccc(OC)cc1` was tested, and the “activity change, negative = inhibition” value was inactive: 2.51%. With `Nc1ccc(-c2nc3ccc(N)cc3s2)cc1` the Potency was active: 14.1 µM. With `Cc1ccc(-n2c(-c3ccccc3)n[nH]c2=S)cc1` the Potency was inconclusive: 10 µM [falling, partial curve]. In the case of `COc1ccc(N/N=C(C)/C(=N/O)C(=O)Nc2ccccc2)cc1`, the Potency is reported as inconclusive: 25.1 µM [falling, single point]. In the case of `O=c1nc(Nc2ccccc2)sc2ccc([N+](=O)[O-])cc12`, the “activity change, negative = inhibition” value is reported as inactive: 3.34%. `COc1cccc(C(=O)Nc2nc(C)cs2)c1` was tested, and the Potency was inconclusive: 15.8 µM [falling, partial curve]. For `COc1ccc(OC(=O)Nc2ccccc2)cc1`, the Potency was inconclusive: 31.6 µM [falling, single point]. `O=C(O)CNC(=O)CC1S/C(=N/N=C/c2ccccc2O)NC1=O` (stereo unspecified) was tested, and the Potency was inconclusive: 15.8 µM [falling, partial curve, poor fit]. In the case of `Cc1cc(C)c(NC(=O)CSc2nc3c(c(=O)n2C)SC(C)C3)c(C)c1` (stereo unspecified), the “activity change, negative = inhibition” value is reported as inactive: -0.482%. With `N/C(=N\OC(=O)c1ccc2c(c1)OCO2)c1cccc(Br)c1` the Potency was active: 12.6 µM. For `Cc1nc(-c2ccc(C(=O)Nc3ccc(F)cc3)cc2)cs1`, the Potency was inconclusive: 14.1 µM [falling, partial curve]. With `CCOC(=O)c1nn(-c2ccc3c(c2)OCCO3)cc1O` the Potency was inconclusive: 28.2 µM [falling, single point]. In the case of `NC(=O)c1ccccc1NC(=O)/C=C/c1ccccc1`, the Potency is reported as inconclusive: 28.2 µM [falling, single point]. `COc1cc(C(=O)Nc2ccc(C(=O)O)cc2)ccc1OC(C)=O` was tested, and the Potency was active: 25.1 µM. In the case of `Cc1ccc(C2CC(C(F)(F)F)n3nc(C(=O)NCc4c(C)nn(C)c4C)c(Cl)c3N2)cc1` (stereo unspecified), the “activity change, negative = inhibition” value is reported as inactive: -3.39%. With `Fc1ccc(SCCc2ccccn2)cc1` the Potency was inconclusive: 39.8 µM [falling, single point]. With `Cc1ccc(NC(=O)CSc2nccn2C)cc1F` the “activity change, negative = inhibition” value was inactive: -7.62%. In the case of `O=c1c2ccccc2nc(/C=C/c2ccc(O)c(O)c2)n1-c1ccccc1`, the Potency is reported as inconclusive: 15.8 µM [falling, partial curve]. `O=C(O)c1cccc2c1NC(C(=O)O)C1CC(Sc3ccccc3[N+](=O)[O-])C(Cl)C21` (stereo unspecified) was tested, and the Potency was inconclusive: 25.1 µM [falling, single point]. `O=C(Nc1ccc2c(c1)OCCO2)NC1(C(F)(F)F)Oc2ccccc2O1` was tested, and the Potency was inconclusive: 20 µM [falling, single point]. In the case of `Cc1ccc2c(CC(=O)Nc3cccc(S(=O)(=O)N4CCOCC4)c3)coc2c1`, the “activity change, negative = inhibition” value is reported as inactive: -1.05%. For `Fc1ccccc1-c1nc2ccccc2[nH]1`, the Potency was inconclusive: 22.4 µM [falling, partial curve]. For `CC[n+]1c(C)sc2sc3ccccc3c21`, the Potency was active: 2.82 µM. With `Cc1cc(C(=O)CSc2n[nH]c(N)n2)c(C)n1-c1ccccc1` the “activity change, negative = inhibition” value was inactive: 1.19%. In the case of `O=C(CSC(=S)N1CCCCC1)c1ccccc1`, the Potency is reported as inconclusive: 22.4 µM [falling, partial curve]. For `Cc1ccc(C)c2[nH]c(=O)c(CN(Cc3ccc4c(c3)OCO4)Cc3nnnn3Cc3ccco3)cc12`, the “activity change, negative = inhibition” value was inactive: 3.36%. `CC1=CCC(COC(=O)Nc2ccccc2)CC1` (stereo unspecified) was tested, and the Potency was inconclusive: 12.6 µM [falling, partial curve]. In the case of `Cc1ccccc1OCc1nc2ccccc2[nH]1`, the Potency is reported as active: 17.8 µM. In the case of `COc1ccccc1-n1c(CNC(=O)COc2ccccc2)n[nH]c1=S`, the Potency is reported as inconclusive: 14.1 µM [falling, partial curve]. `COc1ccc(C(=O)Nc2ccc(Cl)cn2)cc1Cl` was tested, and the “activity change, negative = inhibition” value was inactive: -2.78%. `Cc1csc(NC(=O)c2ccoc2C)n1` was tested, and the Potency was active: 15.8 µM. In the case of `COc1ccccc1NC(=O)Nc1ccc(C(=O)N2CCCCC2)cc1`, the Potency is reported as inconclusive: 15.8 µM [falling, partial curve]. With `O=C1C(c2c(O)[nH]c3ccccc23)=Nc2ccccc21` the Potency was inconclusive: 17.8 µM [falling, partial curve]. For `CCCn1nc([N+](=O)[O-])c(C(C#N)c2nc3ccccc3s2)c(Cl)c1=O` (stereo unspecified), the Potency was inconclusive: 28.2 µM [falling, single point]. With `CCOc1ccccc1NC(=O)CN(c1ccc(OC)cc1)S(=O)(=O)c1c(C)[nH]c(=O)[nH]c1=O` the “activity change, negative = inhibition” value was inactive: 9.79%. In the case of `NC(=O)c1ccccc1N/C=C/C(=O)c1cccs1`, the Potency is reported as active: 15.8 µM. In the case of `COc1ccc(-c2cn3ccc(C)cc3n2)cc1`, the Potency is reported as active: 8.91 µM. With `CCc1nnc(NS(=O)(=O)c2ccc(N=Cc3c(C)[nH]n(-c4ccc(C)c(C)c4)c3=O)cc2)s1` the Potency was inconclusive: 11.2 µM [falling, partial curve]. For `CC(=O)c1ccc(-n2c(-c3cc(-c4ccco4)[nH]n3)n[nH]c2=S)cc1`, the Potency was inconclusive: 12.6 µM [falling, partial curve]. For `S=c1[nH]nc(COc2ccc3c(c2)OCO3)n1-c1ccccc1`, the Potency was inconclusive: 10 µM [falling, partial curve]. `O=C1/C(=C/c2ccccc2)CCCc2ccccc21` was tested, and the Potency was inconclusive: 35.5 µM [falling, single point]. In the case of `CCNC(=S)NNC(=O)c1cc(-c2ccc(OC)cc2)nc2ccccc12`, the Potency is reported as inconclusive: 28.2 µM [falling, single point]. For `CCOc1nc(C)ccc1-c1noc(-c2ccccn2)n1`, the “activity change, negative = inhibition” value was inactive: 0.4%. `CCCCCCCSc1nnc(N)s1` was tested, and the “activity change, negative = inhibition” value was inactive: 5.87%. In the case of `O=C1C=C(Nc2ccc(O)cc2)C(=O)c2ccccc21`, the Potency is reported as inconclusive: 7.94 µM [falling, partial curve]. With `Cc1cc2nnc(SCC(=O)Nc3cc(S(=O)(=O)N4CCOCC4)ccc3Cl)n2c2ccccc12` the “activity change, negative = inhibition” value was inactive: -3.6%. In the case of `O=C(c1ccc(Br)o1)N1CCN=C1SCc1cccnc1`, the “activity change, negative = inhibition” value is reported as inactive: 9.61%. For `Cc1ccc(NC(=S)c2nc3ccccc3[nH]2)cc1`, the Potency was inconclusive: 20 µM [falling, single point].

Source: PubChem BioAssay AID1721 (National Center for Advancing Translational Sciences (NCATS), 2009)
% is scaled to controls: 0 for no effect and ±100 for the full control effect; potency is read from the fitted curve at half-maximal effect; tags tell the direction and shape of the fitted curve.
